Laboratory results: the RNAGym collection of RNA variant scans (doi:10.1073/pnas.2313332121)
Variants at the floor of the assay are shown more often than the library holds them.

B1: TPR 5TU (parent)
chain: GGAUCUUCUCGAUCUAACAAAAAAGACAAAUCUGCCACAAAGCUUGAGAGCAUCUUCGGAUGCAGAGGCGGCAGCCUUCGGUGGCGCGAUAGCGCCAACGUUCUCAACUAUGACACGCAAAACGCGUGCUCCGUUGAAUGGAGUUUAUCAUG

Variants of: B1
Test: polymerase ribozyme fitness, log enrichment relative to wild type (log ratio); higher = more active; in vitro selection for triplet polymerase activity
How it was run: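 Both subunits of a heterodimeric triplet polymerase ribozyme were given their own mutant library, built by PCR and transcribed. Each library was annealed with a biotinylated primer, the partner subunit and triplets, incubated frozen at −7 °C, and its extended constructs gel-excised, captured on streptavidin beads and amplified by RT-PCR, all in one round done in triplicate. Fitness is the logarithm of genotype enrichment relative to wild-type enrichment, with replicates averaged by inverse-variance weighting. That logarithm is base 2, and Illumina-sequenced genotypes needed ≥10 input reads and ≥1 read per output.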

Variant	polymerase ribozyme fitness (log ratio)
GGAUCUUCUCGAUCUAACAAAAAAGACAAAUCUGCCACAAAGCUUGAGAGCUUCUUCGGAUGCAGAGGCGGCAGCCUUCGGUGGCGCGAUAGCGCCAACGUUCUCAACUAUGACACGCAUAACGCGUGCGCCGUUGAAUGGAGUUUAUCAUG [A52U A120U U130G]	≤ -4.2
GGAUCUUCUCGAUCUAACAAAAAAGACAAAUCUGCCACAAAGCUUGAGAGCUUCUUCGGAUGCAGAGGCGGCAGCCUUCGGUGGCGCGAUUGCGCCAACGUUCUCAACUAUGACACGCAAAACGCGUGCUCCGUUGAAGGGAGAUUAUCAUG [A52U A91U U139G U144A]	≤ -4.2
GGAUCUUCUCGAUCUAACAAAAAAGACAAAUCUGCCACAAAGCUUGAGAGCUUCUUCGGAUGCAGAGGCGGCAACCUUCGGUGGCGCGUUAGCGCCAACGUUCUCGACUAUGACACGCUUAGCGCGUGCUCCGUUGAAUGGAGUUUAUCAUG [A52U G74A A89U A106G A119U A120U A122G]	≤ -4.2
GGAUCUUCUCGAUCUAACAAAAAAGACAAAUCUGCCACAAAGCUUGAGAGCUUCUUCGGAUGCAGAGGCGGCAGCCUUCGGUGGCGCGAUAGGGCCAACGUUCUCAACUAAGUCACGCAAAACGCGUGCUCCGUUGAAUGGAGUUUAUCAUG [A52U C93G U111A A113U]	≤ -4.2
GGAUCUUCUCGAUCUAACAAAAAAGACAAAUCUGCCACAAAGCUUGAGAGCUUCUUCGGAUGCAGAGGCGGCAUCCUUCGGUGGCGCGAUAACGCCAACGUUCUCAACUAUGACACGCAAAACGCGUGCUCCGUUGAAUGCCGUUGAUCAUG [A52U G74U G92A G141C A142C U146G]	≤ -4.2
GGAUCUUCUCGAUCUAACAAAAAAGACAAAUCUGCCACAAAGCUUGAGAGCUUCUUCGGAUGCAGAGGCGGCAGCCUUCGGUGGCGCGAUAGCGACAACGUUGUCAACUAUGACAGGCAAAACGCGUGCUCCUUUGAAUGGAGUUUAUCAUG [A52U C95A C103G C116G G133U]	≤ -4.2
GGAUCUUCUCGAUCUAACAAAAAAGACAAAUCUGCCACAAAGCUUGAGAGCUUCUUCGGAUGCAGAUGCGGCAGCCUUCGGUGGUGCGAUAGCGCCAACGUUCUGAACUAUGAAACGCAAAACGCGUGCUCCGUUGAAUGGAGUUUCUCAUG [A52U G67U C85U C105G C114A A147C]	≤ -4.2
GGAUCUUCUCGAUCUAACAAAAAAGACAAAUCUGCCACAAAGCUUGAGAGCUUCUUCGGAUGCAGAGGCGGCAGCCUUCGGUGGCGAGAUAGCGCCAACGUUCUCAACUAUGACACGCAAAACGCGUGCUCCGUUGAAUGGAGUUCAUCAUG [A52U C87A U146C]	≤ -4.2
GGAUCUUCUCGAUCUAACAAAAAAGACAAAUCUGCCACAAAGCUUGAGAGCUUCUUCGAAUGCAGAGGCGGCUGCCUUCGGUGGAACGAUAGCGCCAACGUUCUCAACUAUGACACGCAAAACGCGUGCUACGUUGAAUGGAGUGUAUCAUG [A52U G59A A73U C85A G86A C131A U145G]	≤ -4.2
GGAUCUUCUCGAUCUAACAAAAAAGACAAAUCUGCCACAAAGCUUGAGAGCUUCUUCGGAUGCAGAGGCGGCAGCCUUCGGUGGCGCGAUAGCGCCAACGUUCUCAACUAUGACACGUAAAACGCGUGCUCCGUUGAAUGGAGUUGAUCAUG [A52U C118U U146G]	-3.62
GGAUCUUCUCGAUCUAACAAAAAAGACAAAUCUGCCACAAAGCUUGAGAGCUUCUUCGGAUGCAGAGGCGGCAGCAUUCGGUGGCGCGAUAGCGCCAACGUUCUCAACUAUGAAACGCAAAACGCGUGCUCCGUUGAAUGAAGUUGAUCAUG [A52U C76A C114A G141A U146G]	≤ -4.2
GGAUCUUCUCGAUCUAACAAAAAAGACAAAUCUGCCACAAAGCUUGAGAGCUUCUUCGGAUGCAGAGGCGGCAGCCUUCGGUGGCGCGAUAGCGCUAACGGUCUCAACUAUGACACGCAAAACGCGUGCUCCGUUGAAUGGAGUGUAUCAUG [A52U C96U U101G U145G]	-4.1
GGAUCUUCUCGAUCUAACAAAAAAGACAAAUCUGCCACAAAGCUUGAGAGCUUCUUCGGAUGCAGAGGCGGCAGCCUUCGGUGGCGCGAUAGCGUCAAGGUUCUCAACUAUGACACGCAACACGCGUGCUCCGUUGAAUGGAGUUUAUCAUG [A52U C95U C99G A121C]	≤ -4.2
GGAUCUUCUCGAUCUAACAAAAAAGACAAAUCUGCCACAAAGCUUGAGAGCUUCUUCGGAUGCAGAGGCGGCAGCCUUCAGUGGCGCGAUAGCGCCAACGUUCUCAACUAUGACACGCAAAACGCGUGCUCCGUUGAAUGGAGUUUAUCAUG [A52U G80A]	-3.35
GGAUCUUCUCGAUCUAACAAAAAAGACAAAUCUGCCACAAAGCUUGAGAGCUUCUUCGGAUGCAGAGGCGGCACCCUUCGGUGGCGCGAUAGCGCAAACGUUCUCAACUGUGACACGCAAAACGCGUGCUCCGUUGAAUGGAGUUUAUCAUG [A52U G74C C96A A110G]	≤ -4.2
GGAUCUUCUCGAUCUAACAAAAAAGACAAAUCUGCCACAAAGCUUGAGAGCUUGUUCGGAUGCAGAGGCGGCAGCCUUCGGUGGCGCGAUAGCGCCAACGUUCUCAACUAUGACACGCAAAACGCGUGCUCCGUUGAAUGGAGUUUAUCAUG [A52U C54G]	-2.21
GGAUCUUCUCGAUCUAACAAAAAAGACAAAUCUGCCACAAAGCUUGAGAGCUUCUUCGGAUGCAGAGGCGGCAACUUUCGGUGGCGCGAUAGCGCCAACGUAAUCAACUAUGACACGCAAAACGCGUGCUCCGUUGAAUGGAGUUUAUCAUG [A52U G74A C76U U102A C103A]	≤ -4.2
GGAUCUUCUCGAUCUAACAAAAAAGACAAAUCUGCCACAAAGCUUGAGAGCUUCUUCGGAUGCAGAUUCGGCAGCCUUCGGUGGCGCGAUUGCGCCAACGUUCUCAACUAUGACACGCAAAACGCGUGCUCCGUUGAAUGCAGUUUAUCAUG [A52U G67U G68U A91U G141C]	≤ -4.2
GGAUCUUCUCGAUCUAACAAAAAAGACAAAUCUGCCACAAAGCUUGAGAGCUUCUUCGUAUGCAGAGGCGGCAGCCUUCGGUAGCGCGAGAGCGCCAACGUUCUCAACUAGGGCACGCAAAACGCGUGCUCCGUUGAAUGAAGUUUAUCAUG [A52U G59U G83A U90G U111G A113G G141A]	≤ -4.2
